The source of these data is PubChem BioAssay AID1963576 (National Center for Advancing Translational Sciences (NCATS), 2024).

In all, about 46,000 compounds went through this assay and about 60 (0.1%) were called active. About 3% were inconclusive and are not listed. Calls come from the whole dose curve; as a rule, active = well fitted inhibition curve with a large enough effect; inconclusive = small, poorly fitted or top-dose-only effect; inactive = no such curve, though single readings can be large or run the other way. Some of the results follow.

This experiment is described as follows: Primary qHTS assay for Inhibitors of ovarian cancer metastasis using an organotypic tumor microenvironment (TME) model.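 For activity change, negative = inhibition: plate controls were DMSO wells for no effect and tomatine positive control wells for full effect.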 Note: nearly all actives have a fitted effect of over 65% in size. Particulars: SKOV3ip1-GFP adhesion/invasion on 3D omental model, fluorescence; series mostly up to 45.8 µM; activity change, negative = inhibition: at the top concentration. The gist of the method: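 Primary human omental fibroblast/mesothelial 3D culture pre-formed 48 h. SKOV3ip1-GFP cells added with compounds (0.36-46 umol/L), incubated 2 h RT/16 h 37 C, fixed; GFP cells quantified at 488/509 nm.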
On the technique in general: In qHTS, concentration-response curves come from the screen itself.
Take `Cc1c(Cl)cccc1NC(=O)CNS(=O)(=O)c1cccs1`: the compound was classed as inactive.
As to `COc1ccc(N(CC(C)C)S(=O)(=O)c2nnc(NC(=O)c3cccs3)s2)cc1`, the “activity change, negative = inhibition” value is inactive: -9.37%.
On the same count and under the same terms, the result for `CSc1cccc(NC(=O)C2CCN(S(=O)(=O)c3ccc4c(c3)CCCN4C(=O)C3CCC3)CC2)c1` reads inactive: 2.46%; that for `Cc1ccc(OCc2nc(-c3ccc(C(=O)N4CCN(c5cccc(C(F)(F)F)c5)CC4)cc3)oc2C)cc1`, inactive: 11.8%.
For `CCOC(=O)CCn1cnc2onc(-c3cc(OC)ccc3Cl)c2c1=O`, the compound was called inactive.
Consider `CCOc1ccc2c(c1)sc1nc(=O)n(-c3ccc(Cl)c(Cl)c3)c(=O)n12`, for which the “activity change, negative = inhibition” value is inactive: 0.0956%.
In the case of `Cc1ccc(C(=O)Nc2ccccc2)cc1S(=O)(=O)Nc1ccc(Br)cc1`, the “activity change, negative = inhibition” value is inactive: 4.29%.
As for `Cc1ccc(C(=O)N2CCc3cc(CNC(=O)c4ccc(Br)cc4)ccc32)cc1`, the “activity change, negative = inhibition” value is inactive: 5.24%.
For the compound `COc1ccc(Cl)cc1NC(=O)CSc1nc2ccccc2c2nc(-c3ccccc3)nn12`, the “activity change, negative = inhibition” value is inactive: 6.87%.
Take `Cc1ccccc1-c1nc(CS(=O)(=O)CC(=O)NCCc2ccccc2)c(C)o1`: the call was inactive.
In the case of `Cc1cccc(NC(=O)c2ccc3c(O)c(S(=O)(=O)c4ccccc4)c(=O)[nH]c3c2)c1C`, the “activity change, negative = inhibition” value is inactive: 2.02%.
Turning to `CCOC(=O)c1cnc2c(Cl)cc(Cl)cc2c1Nc1cc(C(=O)O)ccc1C`, the call was inactive.
As for `Cc1cccc(C)c1NC(=O)C(=O)NCC(c1ccc2c(c1)OCO2)N1CCOCC1` (stereo unspecified), the “activity change, negative = inhibition” value is inactive: -0.643%.
As for `COc1ccc(S(=O)(=O)N2CCN(Cc3ccc4c(c3)OCO4)CC2)cc1C`, the “activity change, negative = inhibition” value is inactive: 7.33%.
On the same count and under the same terms, the result for `O=S(=O)(c1ccc(-c2cc(C(F)(F)F)on2)s1)N1CCN(c2ccccc2)CC1` reads inactive: 3.46%.
`CS(=O)(=O)NCC(c1ccco1)N1CCN(c2ccc(F)cc2)CC1` (stereo unspecified): the compound was called inactive.
With `COCCNC(=O)CCn1c(=O)c2cc(OC)c(OC)cc2n(CC(=O)Nc2ccccc2C)c1=O`, the “activity change, negative = inhibition” value was inactive: 24.8%.
On the same count and under the same terms, as for `CCc1ccc(S(=O)(=O)c2nnn3c2nc(Nc2ccc(C)c(Cl)c2)c2sccc23)cc1`, the figure is inactive: 0.258%.
`O=C(Cn1ncn2nc(-c3cccs3)cc2c1=O)NCc1ccc(Cl)cc1`: the “activity change, negative = inhibition” value was inactive: 0.974%.
Turning to `CCOC(=O)c1c(NC(=O)COc2ccc(Br)cc2)sc2c1CCCC2`, the “activity change, negative = inhibition” value was inactive: 10.3%.
With `CCc1ccccc1NC(=O)Nc1cc(C(=O)NCc2cccc(F)c2)ccc1N1CCCC1`, the “activity change, negative = inhibition” value is inactive: -15.8%.
For `COCCCn1c(=N)c(C(=O)NCc2ccco2)cc2c(=O)n3cccc(C)c3nc21`, the result was inactive.
The same measure, in the same setting: as for `CCOC(=O)CN1C(C(=O)c2ccccc2)=C(OC(=O)C(C)(C)C)c2ccccc2S1(=O)=O`, the entry is “inactive”.
In the case of `CC(=O)Nc1cc(C(=O)NCc2ccc(C)cc2)ccc1S(=O)(=O)c1ccc(Cl)cc1`, the “activity change, negative = inhibition” value is inactive: -9.92%.
For `CSc1cccc(NC(=O)Cn2c(=O)n(Cc3ccccc3)c(=O)c3sc4ccccc4c32)c1`, the compound was classed as inactive.
For the compound `CC(C)CNC(=O)C(=O)Nc1c2c(nn1-c1ccccc1)CS(=O)(=O)C2`, the “activity change, negative = inhibition” value is inactive: 6.96%.
Take `CCn1c(SCc2cccc(Br)c2)nnc1-c1nonc1NC(C)=O`: the “activity change, negative = inhibition” value is inactive: 0.656%.
Turning to `Cc1ccc(-n2ncc(C(=O)NCCN3CCCC3)c2C2CCN(C(=O)OC(C)(C)C)CC2)cc1`, the outcome was inactive.
On the same count and under the same terms, the result for `Cc1cc(C)c(NC(=O)c2cc(S(=O)(=O)NCCC3=CCCCC3)ccc2F)c(C)c1` reads “inactive”; that for `CCn1ccc2cc(S(=O)(=O)N3CCC(C(=O)NCc4cccc(Cl)c4)CC3)ccc21`, “inactive”.
As to `Cc1cc(C)n(-c2nc3cc(Cl)ccc3nc2Nc2ccc(C)c(F)c2)n1`, the “activity change, negative = inhibition” value was inactive: -0.812%.
On the same count and under the same terms, the result for `CCOc1ccccc1NC(=O)N1c2ccccc2Sc2ccccc21` reads inactive: -5.82%.
With `Cc1ccc(NC(=O)Cn2nnc3sc4c(c3c2=O)CCC(C)C4)cc1` (stereo unspecified), the call was inactive.
Turning to `COc1ccc(Cn2c(CCC(=O)Nc3ccc(C)cc3)nc3cccnc32)cc1`, the “activity change, negative = inhibition” value is inactive: 3.17%.
Consider `CCOc1ccc(N(C)S(=O)(=O)c2c(C(=O)N3CCC(C)CC3)c(C)n(C)c2C)cc1`, for which the outcome was inactive.
Consider `Cc1cccc(-n2ncc(C(=O)N3CCN(Cc4ccccc4)CC3)c2C2CCN(C(=O)OC(C)(C)C)CC2)c1`, for which the “activity change, negative = inhibition” value is inactive: 2.62%.
Same read-out and setting: as for `COC(=O)CN1C(=O)CSc2ccc(S(=O)(=O)Nc3ccc(C(C)=O)cc3)cc21`, the figure is inactive: -7.58%; as for `CCOc1ccc(C(=O)c2cn(CC(=O)Nc3ccc4c(c3)OCCO4)c3ccc(F)cc3c2=O)cc1`, inactive: -2.15%.
On to `CC(C)CCNS(=O)(=O)c1ccc(N2CCCCS2(=O)=O)cc1`, for which the “activity change, negative = inhibition” value was inactive: 4.55%.
Still for that read-out and setting: as for `COc1ccc(NC(=O)Cn2c(=O)c3cc(Cl)ccc3n3nncc23)cc1`, the figure is inactive: -9.89%.
For `CC1CCN(C(=O)CSc2nnc(-c3ccccc3)o2)CC1`, the “activity change, negative = inhibition” value was inactive: -18.4%.
Still for that read-out and setting: the result for `Cc1cccc(C)c1OC(=O)CSc1nnc(CNC(=O)c2ccccc2)o1` reads inactive: 0.41%; that for `CN(C(=O)CSc1nc(C2CCCC2)nc2c1c(=O)n(C)c(=O)n2C)c1ccccc1`, inactive: -29.2%.
With `Cc1ccc(NC(=O)c2cnc(SCC(=O)N3CCOCC3)n(C)c2=O)cc1C`, the compound was classed as inactive.
Still for that read-out and setting: as for `CC1CCN(C(=O)c2ccc3c(c2)N(Cc2ccccc2)C(=O)c2ccccc2S3(=O)=O)CC1`, the entry is “inactive”.
For the compound `O=C(CN1CCCN(S(=O)(=O)c2ccc(Br)cc2)CC1)Nc1cccc(C(F)(F)F)c1`, the “activity change, negative = inhibition” value was inactive: 11.2%.
